Patent US20250382361A1, “AFFIBODIES, HYDROGELS CONTAINING AFFIBODIES, AND USES THEREOF” (University of Oregon, priority 2024, published 2025)

Key:
IL-4 = target: T1, IL-4 (Homo sapiens, UniProt P05112); test: Flow cytometry of affibody-displaying yeast binding bIL-4
T1 construct: biotin (label as supplied by the vendor); purchased Acro Biosystems
T1 sequence (P05112 25-153): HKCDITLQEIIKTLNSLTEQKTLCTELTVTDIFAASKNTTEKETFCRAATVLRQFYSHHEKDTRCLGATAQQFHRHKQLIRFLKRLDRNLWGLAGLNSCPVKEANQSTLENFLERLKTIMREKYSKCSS
Description: (§1) Several other proteins involved in the bone healing cascade were chosen to investigate specificity of the BMP-2 affibodies. Monoclonal affibody-displaying yeast were incubated with PBSA, αCMYC and secondary solution, or αCMYC with 1000 nM of biotinylated vascular endothelial growth factor (bVEGF), biotinylated interleukin-4 (bIL-4), or biotinylated granulocyte-macrophage colony stimulated factor (bGM-CSF) and secondary solution.
A yeast surface display library containing approximately 800 million randomized affibody-encoding genes underwent magnetic- and fluorescence-activated cell sorts to isolate affibodies that bind specifically to IL-4. […] Target specificity was evaluated by comparing monoclonal affibody binding between all three angiogenic proteins. Target-specific affibodies were transformed into E. coli and expressed with a hexahistidine tag and C-terminal cysteine for purification and chemical conjugation, respectively.

HUVECs = test: VEGF bioactivity HUVEC proliferation assay (CellTiter-Glo); assay type: cell-based, human
FGF-2 [1] = target: T2, FGF-2 (Homo sapiens, UniProt P09038); test: Flow cytometry of affibody-displaying yeast binding bFGF-2; details: 1 μM bFGF-2
T2 construct: biotin (label as supplied by the vendor); purchased Acro Biosystems
T2 sequence (P09038 134-288): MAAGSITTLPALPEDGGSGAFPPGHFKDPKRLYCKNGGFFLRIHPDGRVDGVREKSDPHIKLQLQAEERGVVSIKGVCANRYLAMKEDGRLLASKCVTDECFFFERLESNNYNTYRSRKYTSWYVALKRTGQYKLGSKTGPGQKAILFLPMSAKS
Description: (§2) The binding affinity of each unique affibody for its target protein was characterized using flow cytometry. Yeast were stained for flow cytometry using a similar procedure to FACS staining with a few modifications. The number of induced yeast in each tube was decreased to 1×10^6, and biotinylated protein concentrations for each target ranged from 2.5 to 10000 nM, and yeasts were resuspended in 200 μL of PBSA before being transferred to a 96-well plate. The equilibrium dissociation constant (KD) of each affibody-target protein binding was calculated by comparing the ratio of AF647^+/AF488^+ cells to AF647^+ cells at each target protein concentration, plotting this ratio against protein concentration, and performing nonlinear regression to determine the inflection point of the curve. To determine specificity for each affibody to the respective targets, flow cytometry was performed as described above with one change: each affibody was tested against 1 μM of each of bVEGF, bFGF-2, and bPDGF. Cells were analyzed using an Accuri C6 Plus Flow Cytometer (BD Biosciences, Franklin Lakes, NJ).
(§3) Four rounds of MACS were performed, using magnetic beads covalently conjugated with VEGF165, PDGF-BB, or FGF-2, as the positive sort target, while bovine serum albumin (BSA)-conjugated beads and Tris-coated beads were used for negative sorting. Following MACS, two rounds of FACS were performed to enrich the population for affibody-expressing yeast that bound to the target protein. […] Target specificity was evaluated by comparing monoclonal affibody binding between all three angiogenic proteins. Target-specific affibody coding sequences were transformed into E. coli and expressed with a hexahistidine tag and C-terminal cysteine (e.g., aa 59-65 of SEQ ID NO: 71) for purification and chemical conjugation, respectively.

VEGF = target: T3, VEGF (Homo sapiens, UniProt P15692); test: Biolayer interferometry, soluble affibody vs bVEGF; assay type: binding; details: BLI, binding to VEGF, global fit
T3 construct: biotin (label as supplied by the vendor); purchased Acro Biosystems
T3 sequence (P15692 1-191 isoform P15692-4): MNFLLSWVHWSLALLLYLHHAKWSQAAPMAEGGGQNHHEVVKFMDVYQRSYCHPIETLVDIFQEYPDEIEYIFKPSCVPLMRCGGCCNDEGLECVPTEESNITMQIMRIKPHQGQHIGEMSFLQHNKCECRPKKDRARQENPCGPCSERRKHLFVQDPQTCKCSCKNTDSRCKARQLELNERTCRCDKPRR
Description: (§4) Loaded probes were submerged in PBST until the baseline wavelength reading stabilized (approximately 300 seconds). 3.125-1000 nM of soluble VEGF-specific affibodies serially diluted in PBST were associated to the bVEGF-loaded probes for 600 seconds. Probes were then submerged into PBST or 600 seconds to measure dissociation of the affibodies. For measuring binding between PDGF and PDGF-specific affibodies, nitrilotriacetic acid (Ni-NTA) functionalized glass probes (GatorBio) were similarly pre-soaked in PBST, then loaded with 200 nM of PDGF-specific affibodies in PBST for 300 seconds until an approximate wavelength shift of 0.5 nm was achieved. Loaded probes were submerged in PBST until the baseline wavelength reading stabilized (approximately 300 seconds). 1.563-50 nM of soluble PDGF serially diluted in PBST were associated to the affibody-loaded probes for 600 seconds. Probes were then submerged into PBST for 600 seconds to measure dissociation of PDGF. Measurements were also taken of bVEGF loaded onto the streptavidin-functionalized probes without affibodies, affibodies loaded onto Ni-NTA probes without PDGF, and 0.0625-50 nM of PDGF without affibodies loaded onto Ni-NTA probes to subtract background signal from the data. Binding curves were normalized to data from probes loaded with only affibodies and only growth factors using GatorOne software 2.10 (GatorBio).
(§5) Biolayer interferometry (BLI) was also performed using streptavidin-functionalized glass probes to measure binding of affibodies to their off-target proteins.
(§6) Binding curves were fit to a global best-fit, non-linear regression model using GraphPad Prism 10.1.1 in which R^2>0.97 to determine the equilibrium dissociation constant (KD), on-rate constant (koff), and off-rate constant (kon) of each binding interaction.
The weaker affinity observed on yeast surface display was likely due to increased steric hindrance and decreased mobility of the VEGF-affibody binding interface when the affibody was fixed within the yeast surface display construct compared to being freely accessible in solution during BLI.

VEGF165 = target: T4, VEGF165 (Homo sapiens, UniProt P15692); test: Flow cytometry of affibody-displaying yeast binding bVEGF; details: for binding to VEGF on yeast surface display (specificity): 1 μM bVEGF
T4 construct: biotin (label as supplied by the vendor); purchased Acro Biosystems
T4 sequence (P15692 1-191 isoform P15692-4): T3 sequence (P15692 1-191 isoform P15692-4)
Description: as §2, §1, §3

PDGF-BB [2] = target: T5, PDGF-BB (Homo sapiens, UniProt P01127); test: Flow cytometry of affibody-displaying yeast binding bPDGF; design: biotin (label as supplied by the vendor); purchased R&D Systems; details: 1 μM bPDGF
T5 sequence (P01127 82-190 limits assumed): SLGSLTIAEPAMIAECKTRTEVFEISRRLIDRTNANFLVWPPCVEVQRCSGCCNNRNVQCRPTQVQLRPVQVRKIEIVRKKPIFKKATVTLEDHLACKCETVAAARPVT
Description: as §2, §3
However, because PDGF typically plays a role in the later stages of angiogenesis, PDGF binding affibodies with higher binding affinities were engineered, resulting in slower, sustained protein release. […]

FGF-2 [3] = target: T2, FGF-2; test: Biolayer interferometry, soluble affibody vs bFGF-2; assay type: binding; details: 25 nM bFGF-2 on probe; 1000 nM affibody
Text: To further explore the affibody off-target binding observed on yeast surface display, biolayer interferometry (BLI) was used to measure off-target binding between soluble affibodies and proteins.

PDGF-BB [4] = target: T5, PDGF-BB; test: Biolayer interferometry, affibody vs PDGF; assay type: binding; design: purchased PeproTech; details: 25 nM bPDGF on probe; 1000 nM affibody
Description: The binding interaction between PDGF and each soluble affibody was measured using a Gator® Plus biolayer interferometer (BLI; Gator Bio). Each soluble His-tagged affibody was diluted to 200 nM in PBS with 0.05% Tween20 (PBST; Thermo Fisher). Recombinant human PDGF-BB was buffer-exchanged into PBS and diluted to concentrations between 0-50 nM in PBST. Ni-NTA coated BLI probes (Gator Bio) were pre-soaked in 250 μL PBST for 45 minutes. The probes were then baselined with 200 μL PBST for 300 seconds and loaded with affibody for 180 seconds or until the wavelength shift plateaued. A new baseline was established using 200 μL PBST for 180 seconds, followed by 600 seconds of association with 200 μL of the various concentrations of rhPDGF-BB and dissociation for 600 seconds in 200 μL PBST.
as §4, §5, §6
Rosetta Rational Design Generates PDGF-specific Affibodies with Unique Binding Kinetics: Binding of PDGF to PDGF-specific affibodies was evaluated by loading nickel nitrilotriacetic acid (Ni-NTA)-coated BLI probes with 200 nM of each of the PDGF affibodies, followed by association of 1.563-50 nM of PDGF (FIG. 45G). […] Similar to the VEGF-specific affibody, the lower observed affinity between the original PDGF-specific affibody and PDGF on yeast surface display could be due to increased steric hindrance and decreased mobility of the PDGF-affibody binding interface compared to BLI.

BMP-2 = target: T6, BMP-2 (Homo sapiens, UniProt P12643); test: Biolayer interferometry (BLI), soluble affibody vs bBMP-2; assay type: binding; details: dissociation into PBST
T6 construct: purchased Medtronic
T6 sequence (P12643 283-396): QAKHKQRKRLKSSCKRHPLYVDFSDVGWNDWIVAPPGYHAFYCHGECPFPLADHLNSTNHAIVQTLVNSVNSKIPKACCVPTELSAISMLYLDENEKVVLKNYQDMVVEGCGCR
Description: Streptavidin-coated BLI probes (Gator Bio) were pre-soaked in 250 μL PBST for 45 minutes. […] A new baseline was established using 200 μL PBST for 90 seconds, followed by 300 seconds of association with 200 μL of the various concentrations of affibody and dissociation for 300 seconds in 200 μL PBST.
BLI enabled the determination of the dissociation rate constant (koff), association rate constant (kon), and overall equilibrium dissociation constant (KD) of each binding interaction.

| Sequence | binding to IL-4 on yeast surface display (specificity) (IL-4) | binding to FGF-2 on yeast surface display (specificity) (FGF-2 [1]) | binding to VEGF on yeast surface display (specificity) (VEGF165) | binding to PDGF on yeast surface display (specificity) (PDGF-BB [2]) | binding to bFGF-2 on BLI (specificity) (FGF-2 [3]) | binding to bPDGF on BLI (specificity) (PDGF-BB [4]) | also measured |
| --- | --- | --- | --- | --- | --- | --- | --- |
| AEAKYNKELDAADADVEIWLLPNLTLDQLLAFIAALFNDPSQSSELLSEAKKLNDSQAPK [SEQ ID NO: 61, IL-4 affibody] | specific binding to IL-4 | – | – | – | – | – | – |
| AEAKYNKEWYDAVFVIGSLPNLTEDQKDAFSDALVDDPSQSSELLSEAKKLNDSQAPK [SEQ ID NO: 22, VEGF affibody] | – | negligible binding | specific binding | negligible binding | – | – | HUVEC proliferation (HUVECs; 200 ng/ml VEGF pre-incubated with an equal molar amount of affibody): inhibited to comparable levels to no VEGF treatment; HUVEC proliferation (HUVECs; 200 ng/ml VEGF with affibody increased to 500× molar excess): increased up to comparable levels as treatment with 200 ng/ml of VEGF; HUVEC proliferation with affibody alone (HUVECs; 19,100 ng/mL affibody, no VEGF, 96 hours): induced HUVEC proliferation in the absence of VEGF that was comparable to treatment with 200 ng/mL of VEGF; Kd (VEGF): 89.8 nM |
| AEAKYTKEGFDAYDVIDNLPNLTLDQRNAFVYALENDPSQSSELLSEAKKLNDSQAPK (AEAKYTKEGFDAYDVIDNLPNLTLDQRNAFVYALFNDPSQSSELLSEAKKLNDSQAPK) [SEQ ID NO: 21, VEGF affibody] | – | negligible binding | specific binding | negligible binding | negligible binding | negligible binding | – |
| AEAKYTKELSDANAEIWSLPNLTVDQLVAFIFALWDDPSQSSELLSEAKKLNDSQAPK [SEQ ID NO: 62, IL-4 affibody] | specific binding to IL-4 | – | – | – | – | – | – |
| AEAKYYKEGATAYRVIEYLPNLTGAQKAAFIDALYNDPSQSSELLSEAKKLNDSQAPK [SEQ ID NO: 20, VEGF affibody] | – | negligible binding | specific binding | negligible binding | negligible binding | negligible binding | greater affinity for VEGF than the medium-affinity VEGF affibody (SEQ ID NO: 21) (VEGF165): approximately 5 fold |
| AEAKYYKEVSSAATQIRYLPNLTAFQKAAFYAALLDDPSQSSELLSEAKKLNDSQAPK [SEQ ID NO: 1, BMP-2 affibody] | – | – | – | – | – | – | dissociation of affibody and BMP-2 in BLI (BMP-2): incomplete dissociation |
